# From the supplement of paper PMC12217912
# This is one part of the list. The full chains were built here from the parent and the listed change. Values near 0.05 are background.
# B1: TEV protease; numbered along this chain (parent)
# chain: MGESLFKGPRDYNPISSSICHLTNESDGHTTSLYGIGFGPFIITNKHLFRRNNGTLVVQSLHGVFKVKDTTTLQQHLVDGRDMIIIRMPKDFPPFPQKLKFREPQREERICLVTTNFQTKSMSSMVSDTSCTFPSGDGIFWKHWIQTKDGQCGSPLVSTRDGFIVGIHSASNFTNTNNYFTSVPKNFMELLTNQEAQQWVSGWRLNADSVLWGGHKVFMVKPEEPFQPVKEATQL
# Variants of: B1
# Assay: raw area under fraction-flipped curve 0-4 h after induction (AUC4h, not background-subtracted), DNA-recorder readout of cleavage of the substrate (dimensionless); higher = more cleavage of the substrate by the protease variant
# Details: temperature: 34 °C; time window: 0-4 h after rhamnose induction
# Experimental: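 In vivo DNA recorder in E. coli TOP10(DE3) ΔrhaA at 34 °C. Each TEVp single-site mutant (parent TEVp 0) is paired with a single-site variant of the 7-mer TEVs (canonical ENLYFQ|S). The substrate sits between flexible linkers in a Bxb1-sfGFP-TEVs-SsrA fusion, so cleavage stabilises Bxb1 and speeds flipping of a recombination array, read by NGS. The value is the raw area under the fraction-flipped curve over 0-4 h after rhamnose induction (AUC4h), with ≥20 reads per time point. It is not background-subtracted; inactive controls average about 0.047.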
# 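Note: Bxb1 expression induced with 0.2% (w/v) L-rhamnose at OD600 near 0.5, cultures sampled hourly, flipped fraction per protease–substrate barcode pair counted by paired-end Illumina sequencing.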
variant,measurement,value
MGESLFKGPRDYTPISSSICHLTNESDGHTTSLYGIGFGPFIITNKHLFRRNNGTLVVQSLHGVFKVKDTTTLQQHLVDGRDMIIIRMPKDFPPFPQKLKFREPQREERICLVTTNFQTKSMSSMVSDTSCTFPSGDGIFWKHWIQTKDGQCGSPLVSTRDGFIVGIHSASNFTNTNNYFTSVPKNFMELLTNQEAQQWVSGWRLNADSVLWGGHKVFMVKPEEPFQPVKEATQL [N13T],area with substrate ENLAFQS,0.0713
same,area with substrate ENLCFQS,0.0737
same,area with substrate ENLDFQS,0.0567
same,area with substrate ENLFFQS,0.0663
same,area with substrate ENLHFQS,0.0761
same,area with substrate ENLIFQS,0.079
same,area with substrate ENLKFQS,0.0721
same,area with substrate ENLNFQS,0.07
same,area with substrate ENLQFQS,0.0663
same,area with substrate ENLRFQS,0.0692
same,area with substrate ENLVFQS,0.0762
same,area with substrate ENLWFQS,0.075
MGESLFKGPRDYWPISSSICHLTNESDGHTTSLYGIGFGPFIITNKHLFRRNNGTLVVQSLHGVFKVKDTTTLQQHLVDGRDMIIIRMPKDFPPFPQKLKFREPQREERICLVTTNFQTKSMSSMVSDTSCTFPSGDGIFWKHWIQTKDGQCGSPLVSTRDGFIVGIHSASNFTNTNNYFTSVPKNFMELLTNQEAQQWVSGWRLNADSVLWGGHKVFMVKPEEPFQPVKEATQL [N13W],area with substrate ENLAFQS,0.0892
same,area with substrate ENLCFQS,0.0702
same,area with substrate ENLDFQS,0.0652
same,area with substrate ENLEFQS,0.1
same,area with substrate ENLFFQS,0.0803
same,area with substrate ENLGFQS,0.0781
same,area with substrate ENLHFQS,0.0681
same,area with substrate ENLIFQS,0.0761
same,area with substrate ENLKFQS,0.0849
same,area with substrate ENLLFQS,0.09
same,area with substrate ENLMFQS,0.0647
same,area with substrate ENLNFQS,0.0755
same,area with substrate ENLQFQS,0.0645
same,area with substrate ENLRFQS,0.0797
same,area with substrate ENLSFQS,0.0565
same,area with substrate ENLTFQS,0.0689
same,area with substrate ENLVFQS,0.0787
MGESLFKGPRDYVPISSSICHLTNESDGHTTSLYGIGFGPFIITNKHLFRRNNGTLVVQSLHGVFKVKDTTTLQQHLVDGRDMIIIRMPKDFPPFPQKLKFREPQREERICLVTTNFQTKSMSSMVSDTSCTFPSGDGIFWKHWIQTKDGQCGSPLVSTRDGFIVGIHSASNFTNTNNYFTSVPKNFMELLTNQEAQQWVSGWRLNADSVLWGGHKVFMVKPEEPFQPVKEATQL [N13V],area with substrate ENLAFQS,0.0632
same,area with substrate ENLCFQS,0.0795
same,area with substrate ENLDFQS,0.0649
same,area with substrate ENLEFQS,0.0654
same,area with substrate ENLFFQS,0.0787
same,area with substrate ENLHFQS,0.0739
same,area with substrate ENLIFQS,0.0877
same,area with substrate ENLKFQS,0.0743
same,area with substrate ENLLFQS,0.0713
same,area with substrate ENLMFQS,0.0899
same,area with substrate ENLNFQS,0.0692
same,area with substrate ENLPFQS,0.0491
same,area with substrate ENLRFQS,0.0818
same,area with substrate ENLSFQS,0.063
same,area with substrate ENLTFQS,0.0641
same,area with substrate ENLVFQS,0.079
same,area with substrate ENLWFQS,0.0675
MGESLFKGPRDYSPISSSICHLTNESDGHTTSLYGIGFGPFIITNKHLFRRNNGTLVVQSLHGVFKVKDTTTLQQHLVDGRDMIIIRMPKDFPPFPQKLKFREPQREERICLVTTNFQTKSMSSMVSDTSCTFPSGDGIFWKHWIQTKDGQCGSPLVSTRDGFIVGIHSASNFTNTNNYFTSVPKNFMELLTNQEAQQWVSGWRLNADSVLWGGHKVFMVKPEEPFQPVKEATQL [N13S],area with substrate ENLAFQS,0.0663
same,area with substrate ENLCFQS,0.0812
same,area with substrate ENLDFQS,0.0663
same,area with substrate ENLEFQS,0.0742
same,area with substrate ENLFFQS,0.0861
same,area with substrate ENLGFQS,0.0361
same,area with substrate ENLHFQS,0.0644
same,area with substrate ENLIFQS,0.0732
same,area with substrate ENLKFQS,0.0769
same,area with substrate ENLLFQS,0.0694
same,area with substrate ENLMFQS,0.0805
same,area with substrate ENLNFQS,0.0668
same,area with substrate ENLPFQS,0.069
same,area with substrate ENLQFQS,0.0677
same,area with substrate ENLRFQS,0.0619
same,area with substrate ENLSFQS,0.0505
same,area with substrate ENLVFQS,0.0774
MGESLFKGPRDYNPIHSSICHLTNESDGHTTSLYGIGFGPFIITNKHLFRRNNGTLVVQSLHGVFKVKDTTTLQQHLVDGRDMIIIRMPKDFPPFPQKLKFREPQREERICLVTTNFQTKSMSSMVSDTSCTFPSGDGIFWKHWIQTKDGQCGSPLVSTRDGFIVGIHSASNFTNTNNYFTSVPKNFMELLTNQEAQQWVSGWRLNADSVLWGGHKVFMVKPEEPFQPVKEATQL [S16H],area with substrate ENLAFQS,0.0584
same,area with substrate ENLCFQS,0.0739
same,area with substrate ENLDFQS,0.0684
same,area with substrate ENLEFQS,0.0637
same,area with substrate ENLFFQS,0.0833
same,area with substrate ENLGFQS,0.0615
same,area with substrate ENLHFQS,0.0551
same,area with substrate ENLIFQS,0.0982
same,area with substrate ENLKFQS,0.0707
same,area with substrate ENLLFQS,0.0649
same,area with substrate ENLMFQS,0.0628
same,area with substrate ENLNFQS,0.0669
same,area with substrate ENLPFQS,0.0479
same,area with substrate ENLQFQS,0.061
same,area with substrate ENLRFQS,0.0724
same,area with substrate ENLSFQS,0.0501
same,area with substrate ENLTFQS,0.0462
same,area with substrate ENLVFQS,0.0824
same,area with substrate ENLWFQS,0.0671
MGESLFKGPRDYNPIASSICHLTNESDGHTTSLYGIGFGPFIITNKHLFRRNNGTLVVQSLHGVFKVKDTTTLQQHLVDGRDMIIIRMPKDFPPFPQKLKFREPQREERICLVTTNFQTKSMSSMVSDTSCTFPSGDGIFWKHWIQTKDGQCGSPLVSTRDGFIVGIHSASNFTNTNNYFTSVPKNFMELLTNQEAQQWVSGWRLNADSVLWGGHKVFMVKPEEPFQPVKEATQL [S16A],area with substrate ENLAFQS,0.105
same,area with substrate ENLCFQS,0.0533
same,area with substrate ENLDFQS,0.0601
same,area with substrate ENLFFQS,0.095
same,area with substrate ENLGFQS,0.0651
same,area with substrate ENLHFQS,0.0741
same,area with substrate ENLIFQS,0.0798
same,area with substrate ENLKFQS,0.0778
same,area with substrate ENLMFQS,0.0945
same,area with substrate ENLNFQS,0.0507
same,area with substrate ENLQFQS,0.0795
same,area with substrate ENLSFQS,0.0609
same,area with substrate ENLWFQS,0.0534
MGESLFKGPRDYNPILSSICHLTNESDGHTTSLYGIGFGPFIITNKHLFRRNNGTLVVQSLHGVFKVKDTTTLQQHLVDGRDMIIIRMPKDFPPFPQKLKFREPQREERICLVTTNFQTKSMSSMVSDTSCTFPSGDGIFWKHWIQTKDGQCGSPLVSTRDGFIVGIHSASNFTNTNNYFTSVPKNFMELLTNQEAQQWVSGWRLNADSVLWGGHKVFMVKPEEPFQPVKEATQL [S16L],area with substrate ENLAFQS,0.0577
same,area with substrate ENLDFQS,0.0503
same,area with substrate ENLEFQS,0.0517
same,area with substrate ENLFFQS,0.0731
same,area with substrate ENLHFQS,0.066
same,area with substrate ENLKFQS,0.086
same,area with substrate ENLLFQS,0.069
same,area with substrate ENLPFQS,0.0574
same,area with substrate ENLQFQS,0.0781
same,area with substrate ENLRFQS,0.0663
same,area with substrate ENLSFQS,0.0569
same,area with substrate ENLTFQS,0.0752
same,area with substrate ENLWFQS,0.0704
MGESLFKGPRDYNPIDSSICHLTNESDGHTTSLYGIGFGPFIITNKHLFRRNNGTLVVQSLHGVFKVKDTTTLQQHLVDGRDMIIIRMPKDFPPFPQKLKFREPQREERICLVTTNFQTKSMSSMVSDTSCTFPSGDGIFWKHWIQTKDGQCGSPLVSTRDGFIVGIHSASNFTNTNNYFTSVPKNFMELLTNQEAQQWVSGWRLNADSVLWGGHKVFMVKPEEPFQPVKEATQL [S16D],area with substrate ENLAFQS,0.0637
same,area with substrate ENLCFQS,0.0635
same,area with substrate ENLEFQS,0.0457
same,area with substrate ENLFFQS,0.08
same,area with substrate ENLGFQS,0.0757
same,area with substrate ENLHFQS,0.0595
same,area with substrate ENLIFQS,0.0572
same,area with substrate ENLKFQS,0.0682
same,area with substrate ENLNFQS,0.0909
same,area with substrate ENLPFQS,0.0585
same,area with substrate ENLSFQS,0.0688
same,area with substrate ENLTFQS,0.087
same,area with substrate ENLVFQS,0.0606
same,area with substrate ENLWFQS,0.053
MGESLFKGPRDYNPIISSICHLTNESDGHTTSLYGIGFGPFIITNKHLFRRNNGTLVVQSLHGVFKVKDTTTLQQHLVDGRDMIIIRMPKDFPPFPQKLKFREPQREERICLVTTNFQTKSMSSMVSDTSCTFPSGDGIFWKHWIQTKDGQCGSPLVSTRDGFIVGIHSASNFTNTNNYFTSVPKNFMELLTNQEAQQWVSGWRLNADSVLWGGHKVFMVKPEEPFQPVKEATQL [S16I],area with substrate ENLAFQS,0.113
same,area with substrate ENLDFQS,0.0979
same,area with substrate ENLEFQS,0.0679
same,area with substrate ENLFFQS,0.0793
same,area with substrate ENLGFQS,0.0513
same,area with substrate ENLHFQS,0.0734
same,area with substrate ENLIFQS,0.0763
same,area with substrate ENLKFQS,0.0788
same,area with substrate ENLLFQS,0.0824
same,area with substrate ENLNFQS,0.0703
same,area with substrate ENLPFQS,0.0625
same,area with substrate ENLRFQS,0.052
same,area with substrate ENLSFQS,0.0625
